The source of these data is the supplement of paper PMC9446081.

Out of some 39,000 compounds screened, about 220 (0.56%) showed activity. This is one part of the list.
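Note: static incubation at 37 °C against the wild-type strain, values averaged over two biological replicates.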

This test deals with Escherichia coli K-12 BW25113. The experiment in a line: relative growth (OD600 normalised to plate interquartile mean) (fraction); higher = less growth inhibition, active = 0.2 or less. Conditions: 50 µM; LB; incubation time: overnight (16-24 h).
As to `CO[C@@H]1CN(C)C(=O)c2ccc(NC(=O)Nc3ccccc3F)cc2OC[C@H](C)N(Cc2ccccc2C(=O)O)C[C@H]1C`, the relative growth was inactive: 0.991.
As for `C[C@H](CO)N1C[C@H](C)[C@H](CN(C)S(=O)(=O)c2ccccc2)Oc2ccc(NS(=O)(=O)c3ccc(F)cc3)cc2C1=O`, the relative growth was inactive: 1.01.
For `O=C(O)c1cc(=O)c2cccc(O)c2[nH]1` the value was inactive: 1.
On to `C[C@H](CO)N1C[C@H](C)[C@@H](CN(C)C(=O)Nc2cccc3ccccc23)OCCCC[C@H](C)Oc2ccc(N(C)C)cc2C1=O`, for which the relative growth is inactive: 1.02.
Turning to `Cc1ccc(C(=O)Oc2ccc(/C=N/c3cccs3)cc2)cc1`, the relative growth is inactive: 0.929.
As to `C[C@@H]1CCCCO[C@@H](CN(C)C(=O)Nc2ccc(C(F)(F)F)cc2)[C@H](C)CN([C@@H](C)CO)C(=O)c2cc(NC(=O)Cc3ccccc3)ccc2O1`, the relative growth was inactive: 1.
Consider `O=C1CCCNc2ccc(Cl)cc21`, for which the relative growth was inactive: 0.864.
Turning to `C[C@H]1CN([C@@H](C)CO)C(=O)Cc2cc(NC(=O)CCN3CCOCC3)ccc2O[C@@H]1CN(C)Cc1ccncc1`, the relative growth is inactive: 0.995.
With `O=C(C[C@@H]1C[C@H]2c3cc(NS(=O)(=O)c4ccc(F)cc4)ccc3O[C@H]2[C@H](CO)O1)N1CCOCC1` the figure was inactive: 0.923; with `CC1=C(C(=O)O)N2C(=O)[C@@H](NC(=O)[C@@H](N)c3ccccc3)[C@H]2SC1`, inactive: 0.998.
With `C[C@H]1CCCCO[C@@H](CN(C)S(=O)(=O)c2cn(C)cn2)[C@@H](C)CN([C@@H](C)CO)C(=O)c2cc(NS(=O)(=O)c3ccccc3)ccc2O1` the figure was inactive: 0.995; with `C[C@@H]1CCCCO[C@H](CN(C)S(=O)(=O)c2ccccc2)[C@@H](C)CN([C@@H](C)CO)C(=O)c2cc(NC(=O)CCC(F)(F)F)ccc2O1`, inactive: 1.
With `CN1C(=O)c2cc(NC(=O)c3cccs3)ccc2OC[C@H]2O[C@@H](CC(=O)NCCN3CCCCC3)CC[C@H]21` the figure was inactive: 0.991.
For the compound `O=C(C[C@H]1CC[C@H](NC(=O)c2ccc(F)cc2)[C@@H](CO)O1)NCc1ccncn1`, the relative growth was inactive: 1.04.
For `O=C(O)[C@]1(O)C[C@@H](O)[C@@H](O)[C@H](O)C1`, the relative growth is inactive: 0.958.
Take `CC(=O)N1Cc2cc(C(=O)NCC(F)(F)F)nc(-c3cccc(-c4cc5ccccc5o4)c3)c2[C@H]1CCO`: the relative growth is inactive: 0.981.
On to `Cc1ccc(S(=O)(=O)NCC[C@@H]2CC[C@@H](NS(=O)(=O)c3ccccc3Cl)[C@@H](CO)O2)cc1`, for which the relative growth is inactive: 0.983.
For `CN(C)CC(=O)N1[C@@H]2c3ccc(-c4ccccc4)c(=O)n3C[C@H]1[C@H](CO)[C@H]2C(=O)N1CCN(C)CC1` the value was inactive: 1.
As to `O=C(O)[C@]1(O)C[C@H](O)[C@@H](O)[C@@H](O)C1`, the relative growth is inactive: 0.958.
In the case of `C[C@H]1CN([C@@H](C)CO)C(=O)c2cc(NC(=O)CCCN(C)C)ccc2O[C@@H]1CN(C)S(=O)(=O)c1cccs1`, the relative growth is inactive: 1.03.
With `Cc1ccc(S(=O)(=O)N(C)C[C@H]2Oc3c(NC(=O)c4ccncc4)cccc3C(=O)N([C@@H](C)CO)C[C@@H]2C)cc1`, the relative growth was inactive: 0.986.
As to `C[C@H]1CN([C@@H](C)CO)C(=O)Cc2cc(NC(=O)C3CCCCC3)ccc2O[C@H]1CN(C)Cc1ccc(Oc2ccccc2)cc1`, the relative growth was inactive: 1.02.
Consider `C[C@@H]1CN([C@@H](C)CO)C(=O)Cc2cc(NC(=O)Cn3cnnn3)ccc2O[C@@H]1CN(C)C(=O)Nc1ccccc1`, for which the relative growth was inactive: 1.02.
On to `CN1CCN(C(=O)C[C@@H]2C=C[C@@H](NC(=O)Cc3ccccn3)[C@H](CO)O2)CC1`, for which the relative growth was inactive: 1.
`Cc1ccc(S(=O)(=O)Nc2ccc3c(c2)C(=O)N([C@H](C)CO)C[C@H](C)[C@H](CN(C)Cc2ccc(-c4ccccc4)cc2)O3)cc1`: the relative growth is inactive: 1.01.
Consider `C[C@@H]1CCCCO[C@H](CN(C)C(=O)CCC(F)(F)F)[C@H](C)CN([C@@H](C)CO)C(=O)c2cc(NC(=O)CCCCCC(=O)Nc3ccccc3N)ccc2O1`, for which the relative growth is inactive: 1.03.
For `C[C@H]1CN([C@@H](C)CO)C(=O)Cc2cc(NC(=O)Cn3cnnn3)ccc2O[C@H]1CN(C)S(=O)(=O)c1cccs1` the value was inactive: 0.972; for `COc1ccc(S(=O)(=O)Nc2ccc3c(c2)CC(=O)N([C@H](C)CO)C[C@@H](C)[C@@H](CN(C)S(=O)(=O)c2cn(C)cn2)O3)cc1`, inactive: 1.01.
Turning to `CC(=O)N[C@@H]1[C@@H](O)[C@H](O)[C@@H](CO)O[C@H]1O`, the relative growth is inactive: 0.95.
For `C[C@H](CO)N1C[C@H](C)[C@H](CN(C)Cc2ccc(C(=O)Nc3ccccc3N)cc2)Oc2c(NC(=O)Nc3ccc(F)cc3)cccc2C1=O`, the relative growth was inactive: 1.03.
With `COc1cc(C2Oc3cc(C4Oc5cc(O)cc(O)c5C(=O)C4O)ccc3OC2CO)ccc1O` (stereo unspecified) the figure was inactive: 0.94.
Take `COc1cccc(C(=O)Nc2ccc3c(c2)C(=O)N(C)[C@H]2CC[C@@H](CC(=O)NCC4CC4)O[C@H]2CO3)c1`: the relative growth was inactive: 0.991.
Take `COc1ccc(S(=O)(=O)Nc2ccc3c(c2)C(=O)N([C@@H](C)CO)C[C@@H](C)[C@@H](CN(C)C(=O)Nc2ccccc2)OCCCC[C@H](C)O3)cc1`: the relative growth is inactive: 1.02.
With `O=C(C[C@@H]1C=C[C@H](NC(=O)C2CC2)[C@@H](CO)O1)NCCCN1CCOCC1`, the relative growth was inactive: 0.994.
Turning to `Cc1ccc(S(=O)(=O)N(C)C[C@@H]2OCCCC[C@H](C)Oc3ccc(NC(=O)NC4CCCCC4)cc3C(=O)N([C@@H](C)CO)C[C@H]2C)cc1`, the relative growth was inactive: 0.975.
With `COc1ccc(S(=O)(=O)Nc2cccc3c2O[C@@H](CN(C)S(=O)(=O)c2cccs2)[C@@H](C)CN([C@H](C)CO)C3=O)cc1`, the relative growth is inactive: 1.01.
For the compound `COC(=O)CCCCCCC(=O)N/N=C/[C@H](O)[C@@H](O)[C@H](O[C@@H]1O[C@H](CO)[C@H](O)[C@H](O)[C@H]1O)[C@H](O)CO`, the relative growth was inactive: 0.991.
For the compound `O=C(O)CCCC[C@@H]1SC[C@@H]2NC(=O)N[C@@H]21`, the relative growth is inactive: 1.
Consider `COc1ccc(S(=O)(=O)N(C)C[C@H]2OCCCC[C@H](C)Oc3ccc(NC(=O)Nc4c(C)noc4C)cc3C(=O)N([C@@H](C)CO)C[C@@H]2C)cc1`, for which the relative growth is inactive: 1.02.
With `C[C@H](CO)N1C[C@H](C)[C@H](CN(C)S(C)(=O)=O)Oc2ccc(NS(=O)(=O)c3ccc(F)cc3)cc2C1=O` the figure was inactive: 0.984.
`Cc1ccc(S(=O)(=O)N(C)C[C@H]2OCCCC[C@H](C)Oc3ccc(NC(=O)C4CCCCC4)cc3C(=O)N([C@H](C)CO)C[C@@H]2C)cc1`: the relative growth is inactive: 1.01.
Turning to `C[C@H](CO)N1C[C@H](C)[C@@H](CN(C)S(C)(=O)=O)Oc2ccc(NS(=O)(=O)c3ccc(Cl)cc3)cc2CC1=O`, the relative growth was inactive: 0.988.
As for `COc1ccc(NC(=O)Nc2ccc3c(c2)C(=O)N([C@H](C)CO)C[C@@H](C)[C@@H](CN(C)S(=O)(=O)c2ccc(OC)cc2)OCCCC[C@H](C)O3)cc1`, the relative growth was inactive: 1.02.
With `Cc1cc(O)cc(=O)[nH]1` the figure was inactive: 0.962; with `C[C@@H]1CCCCO[C@H](CN(C)C(=O)c2ccccc2)[C@@H](C)CN([C@H](C)CO)C(=O)c2cc(NC(=O)c3ccccc3)ccc2O1`, inactive: 0.974.
Regarding `NCC[C@@H]1CC[C@@H](NC(=O)Nc2ccc(F)cc2)[C@H](CO)O1`, the relative growth was inactive: 0.962.
As to `Cc1ccc(S(=O)(=O)N(C)C[C@@H]2Oc3c(NC(=O)Nc4ccc(C(F)(F)F)cc4)cccc3C(=O)N([C@H](C)CO)C[C@@H]2C)cc1`, the relative growth was inactive: 0.955.
For `CC(C)NC(=O)Nc1ccc2c(c1)C(=O)N([C@@H](C)CO)C[C@H](C)[C@H](CN(C)C(=O)Nc1ccc(F)cc1)OCCCC[C@@H](C)O2` the value was inactive: 1.
On to `CCCCc1cc(CCCC)n2nc(-c3ccccc3)cc2n1`, for which the relative growth is inactive: 1.04.
Consider `Nc1nc(=O)c2nc(CNc3ccc(C(=O)N[C@@H](CCC(=O)O)C(=O)O)cc3)cnc2[nH]1`, for which the relative growth was inactive: 0.99.
As for `C[C@@H]1CN([C@H](C)CO)C(=O)c2cccc(NC(=O)Nc3ccc4c(c3)OCO4)c2O[C@H]1CN(C)Cc1ccc(Cl)c(Cl)c1`, the relative growth was inactive: 1.
Turning to `C[C@@H]1CN([C@H](C)CO)C(=O)Cc2cc(NC(=O)C3CC3)ccc2O[C@@H]1CN(C)C(=O)Nc1ccc2c(c1)OCO2`, the relative growth was inactive: 0.981.
Turning to `CN1Cc2c(Cl)cc(Cl)cc2[C@H](c2cccc(S(=O)(=O)NCCOCCOCCNC(=O)NCCCCNC(=O)NCCOCCOCCNS(=O)(=O)c3cccc([C@@H]4CN(C)Cc5c(Cl)cc(Cl)cc54)c3)c2)C1`, the relative growth is inactive: 0.963.
As to `CO/N=[N+](\[O-])NC(C)C`, the relative growth was inactive: 0.985.
`COc1ccc(NC(=O)N(C)C[C@@H]2OCCCC[C@H](C)Oc3ccc(NC(=O)Nc4c(C)noc4C)cc3C(=O)N([C@H](C)CO)C[C@@H]2C)cc1`: the relative growth was inactive: 1.02.
`C[C@H]1CCCCO[C@H](CN(C)Cc2ccccc2)[C@@H](C)CN([C@@H](C)CO)C(=O)c2cc(NS(=O)(=O)c3cccs3)ccc2O1`: the relative growth was inactive: 0.979.
Regarding `CCN(CC)C(=O)c1cccc(C)c1`, the relative growth is inactive: 0.981.
Consider `CC(C)NC(=O)Nc1cccc2c1O[C@@H](CN(C)Cc1ccc(-c3ccccc3)cc1)[C@@H](C)CN([C@H](C)CO)C2=O`, for which the relative growth is inactive: 0.999.
For `COc1ccc(NC(=O)N(C)C[C@H]2OCCCC[C@H](C)Oc3ccc(NC(=O)Nc4ccc(C(F)(F)F)cc4)cc3C(=O)N([C@@H](C)CO)C[C@H]2C)cc1`, the relative growth is inactive: 1.02.
`C[C@@H]1CCCCO[C@@H](CN(C)C(=O)Nc2ccc(C(F)(F)F)cc2)[C@H](C)CN([C@H](C)CO)C(=O)c2cc(NC(=O)Nc3ccc(F)cc3)ccc2O1`: the relative growth is inactive: 1.02.
`C[C@H](CO)N1C[C@H](C)[C@H](CN(C)Cc2ccc3c(c2)OCO3)Oc2c(NS(=O)(=O)c3cn(C)cn3)cccc2C1=O`: the relative growth is inactive: 0.976.
